Results: the RNAGym collection of RNA variant scans (doi:10.1093/nar/gkz1192)
The source gives no read counts; variants with many changes may rest on few reads.

B1: CPEB3 Ribozyme (parent)
chain: UAACAGGGGGCCACAGCAGAAGCGUUCACGUCGCAGCCCCUGUCAGAUUCUGGUGAAUCUGCGAAUUCUGCUGUAUAUCUC

Variants of: B1
Assay: self-cleavage, relative activity (ratio to wild type); higher = more cleavage; in vitro, sequencing
Procedure, shortened: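 Relative activity compares each variant's cleaved/total read fraction with that of the unmutated ribozyme. To get these fractions, barcoded CPEB3 ribozyme libraries from rounds of error-prone PCR were transcribed with T7 RNA polymerase for 5 hours at 37°C and then given 15 min of DNase I treatment before EDTA was added. The RNAs were reverse transcribed with template switching and sequenced on Illumina, and DNA sequencing linked barcodes to variants. A minimum of 5 reads applied, and three batches were averaged.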

Row | Variant | self-cleavage
1 | UAACUGGGGGCCACAGCAGAAGCGUUCACGUCGCAGCCCCUGUCAGGUUCUGGUGAAUCUGCGUACUCUGCUGUAUAUCAC | 0.3
2 | UAACUGGGGGCCACAGCAGAAGCGUUCACGUCGCAGCCCCUGUCAGGUACUGGUGAAUCUGCGUAUUCUGCUGUAUAUCUC | 0.2
3 | UAACUGGGGGCCACAGCAGAAGCGUUCACGUCGCAGCCCCUGUCAGAUUCUGGUGGAUCCGCGAAUUCUGCUGUAUAUCUC | 0.4
4 | UAACUGGGGGCCACAGCAGAAGCGUUCACGUCGCAGCCCCUGUCAGAUUCUGGUGGAUCUGCGAACUCUGCCGUAUAUCUC | 0.3
5 | UAACUGGGGGCCACAGCAGAAGCGUUCACGUCGCAGCCCCUGUCAGAUUCUGGUGGAUCUGCGAAUUCUGCUGUAUAUCAC | 1.02
6 | UAACUGGGGGCCACAGCAGAAGCGUUCACGUCGCAGCCCCUGUCAGAUUCUGGUGUAUCUGCGAGUUCUGCUGUAUAUCUC | 0.36
7 | UAACUGGGGGCCACAGCAGAAGCGUUCACGUCGCAGCCCCUGUCAGAUUCUGGUGUAUCUACGAAUUCUGCUGUAUAUCUC | 0.25
8 | UAACUGGGGGCCACAGCAGAAGCGUUCACGUCGCAGCCCCUGUCAGAUUCUGGUGUAUCUGCGAAUCCUGCUGUAUAUCUC | 0.49
9 | UAACUGGGGGCCACAGCAGAAGCGUUCACGUCGCAGCCCCUGUCAGAUUCUGGUGUAUCUGCGAAUUCUGCUGUAUAUCCC | 0.73
10 | UAACUGGGGGCCACAGCAGAAGCGUUCACGUCGCAGCCCCUGUCAGAUUCUGGUGAGUCUGCGAAUUCCGCUGUAUAUCUC | 0.6
11 | UAACUGGGGGCCACAGCAGAAGCGUUCACGUCGCAGCCCCUGUCAGAUUCUGGUGAGUCUGCGAAUUCUGCUGUAUAUCCC | 1.07
12 | UAACUGGGGGCCACAGCAGAAGCGUUCACGUCGCAGCCCCUGUCAGAUUCUGGUGAUUAUGCGAAUUCUGCUGUAUAUCUC | 0.29
13 | UAACUGGGGGCCACAGCAGAAGCGUUCACGUCGCAGCCCCUGUCAGAUUCUGGUGAAUCUGCGGAUUCCGCUGUAUAACUC | 0.55
14 | UAACUGGGGGCCACAGCAGAAGCGUUCACGUCGCAGCCCCUGUCAGAUUCUGGUGAAUCUGCGGAUUCGGCUGUAUAUCUC | 0.52
15 | UAACUGGGGGCCACAGCAGAAGCGUUCACGUCGCAGCCCCUGUCAGAUUCUGGUGAAUCUGCGGAUUCUGCUGUAUAUCCC | 1.06
16 | UAACUGGGGGCCACAGCAGAAGCGUUCACGUCGCAGCCCCUGUCAGAUUCUGGUGAAUCUGCGUAUCCUGCAGUAUAUCUC | 0.41
17 | UAACUGGGGGCCACAGCAGAAGCGUUCACGUCGCAGCCCCUGUCAGAUUCUGGUGAAUCUGCGAGCUCUGCUGUAUAUCUC | 0.5
18 | UAACUGGGGGCCACAGCAGAAGCGUUCACGUCGCAGCCCCUGUCAGAUUCUGGUGAAUCUGCGAGUUCCGCAGUAUAUCUC | 0.16
19 | UAACUGGGGGCCACAGCAGAAGCGUUCACGUCGCAGCCCCUGUCAGAUUCUGGUGAAUCUGCGAGUUCUGCAGUAUAUCUC | 0.75
20 | UAACUGGGGGCCACAGCAGAAGCGUUCACGUCGCAGCCCCUGUCAGAUUCUGGUGAAUCUGCGAAUUCUGCUGUAUUUCCC | 1.11
21 | UAACUGGGGGACACGGCAGAAGCGUUCACGUCGCAGCCCCUGUCAGAUUCAGGUGAAUCUGCGAAUUCUGCUGUAUAUCUC | 0.27
22 | UAACUGGGGGACACAGCUGAAGCGUUCACGUCGCAGCCCCUGUCAGAUUCUGGUGAAUCUGCGAAUUCUGCUGUAUUUCUC | 0.38
23 | UAACUGGGGGACACAGCAGGAGCGUUCACGACGCAGCCCCUGUCGGAUUCUGGUGUAUCUGCGAAUUCUGCUGUAUAUCUC | 0.04

Row | Variant | self-cleavage
24 | UAACUGGGGGGCUCAGCAGAAGCGUUCACGUCGCAGCACCUGUCAGAUUCUGGUGAAUCUGCGAAUUCUGCUGUAUAUCUC | 0.4
25 | UAACUGGGGGGCACAGCAGGAGCGUUCACGUCGCAGCCCCUGACUGAUUCUGGUGAAUCUGCGAAUUCUGCUGUAUAUCUC | 0.28
26 | UAACUGGGGGGCACAGCAGAAGCGUUCCCGUCGCAGCCCCUGUCAGAUUCUGGUGGAUCUGCGAAUUCUGCCGUAUACCUC | 0.11
27 | UAACUGGGGGGCACAGCAGAAGCGUUCACGUCGCAGCCCCUGUCAGAUUCUGGUGAAUCUGCGAGUUCUGCCGUAUAUCUC | 0.09
28 | UAACUGGGGGGCACAGCAAUAGCGUUCCCGUCGCAGCCCCUGUCAGAUUCUGGUGAAUCUGCGAAUUCUGCUGUAUAUCUU | 0.06
29 | UAACUGGGGGGCACAGCAGAAGCGUCCAUGUCGCAGCCCCUGUCAGAUUCAGGUGUAUCUGCGAAUUCUGCUGUAUAUCUC | 0.04
30 | UAACUGGGGGUCACAGCAGGAGCGUACACGUCGCGGCCCCUGUCGGAUUCUGGUGAAUCUGCGAAUUCUGCUGUAUAUCUC | 0.9
31 | UAACUGGGGGUCACAGCAGUAGCGUUCACGUCACAGCCCCUGUCAGAUUCUGGCGAAUCUGCGUAUUCUGCAGUAUAUCUC | 0.15
32 | UAACUGGGGGUCACAGCAGAAGCGUUCAUGUCGCAGCCCCUGUCAGACUCCGGUGUAUCUGCGAAAUCUGCUGUAUAUCUC | 0.04
33 | UAACUGGGGGUCACAGCAGAAGCGUCCACGUCGCAGCCCCUGUCAGAUUCUGGUGAAUCUGCGAAUUCUGCUGUAUAUCUC | 0.48
34 | UAACUGGGGGUCACAGCAGAAGCGUUCACGUCGCAGCCCCAGUCAGAUUCUGGUGAAUCCGCGAAUUCUGCUGUAUAUCUC | 0.15
35 | UAACUGGGGGCGACAGCAGGAGCGUUCACGUCGCAGCCCCUGACUGAUUCAGGUGAAUCCGCGAAUUCUGCUGUAUAUCUC | 0.12
36 | UAACUGGGGGCGACAGCAGAAGCGUUCUCGUCGCAGCCCCUGUCAGAUUCUGGUGAAUCUGCGAAUUCUGCUGUAUAUCCC | 0.96
37 | UAACUGGGGGCUACAGCGGAAGCGUUCACGUCGCAGGCCCUGACAGGUUCCGGUGAAUCUGCGAAUUCUGCUGUAUAUCUC | 0.25
38 | UAACUGGGGGCUACAGCGGAAGCGUCCACGUCGCUGCCCCAGUCAGAUUCUGGUGAAUCUGCGAAUUCUGCUGUAAAUCUC | 0.24
39 | UAACUGGGGGCUACAGCGGAAGCGUCCACGUCGCAGCCCCUGUCAGAUUCUGGUGAAUAUGCGAAUUCUGCUGUUAAUCUC | 0.12
40 | UAACUGGGGGCUACAGCAGAAGCGUUCACGUCGCAGCCCCUGUCAGAUUCUGGUGAGUCUGCGAAUUCUGCUGUAUAUCUC | 1.15
41 | UAACUGGGGGCUACAGCAGAAGGGUUCACGUCGCAGCCCCUGCCAGAUCCUGGUGAAUCUGCGAAUUCUGCUGUAUAUCUC | 0.15
42 | UAACUGGGGGCUACAGCAGAAGCGUUCACGUCGCAGCCUCUGUCAGAUUCUGGUGAAUCUGCGAAUUCUGCUGUAUAUCUC | 1.07
43 | UAACUGGGGGCUACAGCAGAAGCGUUCACGUCGCAGCCCCCCUCAGAUUCUGGUGAAUCUGCGAAUCCUGCUGUUUAUCUC | 0.05
44 | UAACUGGGGGCUACAGCAGAAGCGUUCACGUCGCAGCCCCUGUCAGAUACUGGUGAAUCUGCGAAUUCUGCUGUAUAUCUC | 0.78
45 | UAACUGGGGGCCAAAGCGGAAGCGCUCACGUCGCAGCCCCUGACAGACUCUGGUGAAUCCGCGAAUUCUGCUGUAUAUCUC | 0.09
46 | UAACUGGGGGCCAAAGCUGGAGCGCUCACGUCGCAGCCCCUGUCAGAUUCUGGUGAAUCUGCGAAUUCUGCUGUAUAUCUC | 0.08

Row | Variant | self-cleavage
47 | UAACUGGGGGCCAAAGCAGAAGCGUUCACGUCGCAUCCCCUGUCAGAUUCUGGAGAAUCUGCGAAUUCAGCUGUAUAUCUC | 0.18
48 | UAACUGGGGGCCAAAGCAGAAGCGUUCACGUCGCAGCCCCUGCCAGAUUCUGGUGUAUCUGCGAAUUCUGCUGUAUAUCUC | 0.26
49 | UAACUGGGGGCCAGGGCAGAAGCGUUCACGUCGCAGCCCCUGUCAGAUUCUGGUGAAUCUGCGAAUUCUGCUGUAUAUCUC | 0.8
50 | UAACUGGGGGCCAGAGCAGAAGCAUUCACGUCGCAGUCCCUGUCAGAUUCUGGUGAAUCUGCGAAUUCUGCUGUAUAUCUC | 0.27
51 | UAACUGGGGGCCAUAGCAGAAGCGUUCGCGUCGCAGCCCCUGUCAGAUUCUGGUGAAUCUGCGAAUUCUGCUGUAUAUCUC | 0.6
52 | UAACUGGGGGCCAUAGCAGAAGCGUUCACGUCGCGGCCCCUGUCAGAUUCUGGUGAAUCUGCGAACUCUGCUGUAUUUCUC | 1.29
53 | UAACUGGGGGCCAUAGCAUAAGCGUUCACGUCACAGCCCCUGUCAGAUUCUGGUGAAUCUACGAAUUCUGCUUUAUAUCUC | 0.09
54 | UAACUGGGGGCCAUAGCAGAAGCGCUCACGUCGCAGCCCCUGUCAGAUUCUGGUGAAUCUGCGUAUUAUGCUGUAUAUCUC | 0.32
55 | UAACUGGGGGCCAUAGCAGAAGCGUUCACGUCGCAGCCCCAGUCAGAUUCUGGUGAAUCUGCGGAUUCUGCUGUAUAUCUC | 0.11
56 | UAACUGGGGGCCACAGGAGAAGCGUUCACGUCGCAGCCCCUGUCAGGUUCUGGUGAAUCUGCGAAUUCUGCUGUAUAUCUC | 0.08
57 | UAACUGGGGGCCACAGGAGAAGCGUUCACGUCGCAGCCCAUGUCAGAUCUUGGCGAAUCUGCGAAUUCUGCUGUAUAUCUC | 0.08
58 | UAACUGGGGGCCACAGGAGAAGCGUUCACGUCGCAGCCCCUGUCAGAUUCGGGUGAAUCUGCGAAUUCUGCUGUAUAUCUC | 0.34
59 | UAACUGGGGGCCACAGGAGAAGCGUUCACGUCGCAGCCCCUGUCAGAUUCUGGUGAAUCUGCGAACUCUGCUGUAUAUCUC | 0.27
60 | UAACUGGGGGCCACAGGAGAAGCGUUCACGUCGCAGCCCCUGUCAGAUUCUGGUGAAUCUGCGAAUCCUGCUGUAUAUCUC | 0.24
61 | UAACUGGGGGCCACAGUAGAAGCGUUCACGUCGCUGCCCCUGUCAGAUUCUGGUGAAUCUGCGAAUUCUGCUGUAUAUCUC | 0.76
62 | UAACUGGGGGCCACAGUAGAAGCGUUCACGUCGCAGCCCCUGUCGGAUUCUGGUGAACCAGCGAAUUCUGCUGUAUAUCUC | 0.3
63 | UAACUGGGGGCCACAGUAGAAGAGUUCACGCCGCAGCCCCUGUCAGAUUCUGGUGAAUCUGCGUAUUCUGCUGUAUAUCUC | 0.07
64 | UAACUGGGGGCCACAGUAGAAGCGUUCACGUCGCAGCCUCUGUAAGAUUCUGGUGAAUCUGCGAAUUCUGCAGUAUAUCUC | 0.07
65 | UAACUGGGGGCCACAGUAGAAGCGUUCACGUCGCAGCCCCAGUCAGAUUCUGGUGAAUCUGCGAAUUCUGCUGUAUAUCAC | 0.1
66 | UAACUGGGGGCCACAGCAGAAGAGUUCACGUCGCAGCCCCUGUCCGAUUCUGGUGAAUCUGCGAAUUCUGCUGUAUAUCUC | 0.28
67 | UAACUGGGGGCCACAGCAGAAGAGUUCACGUCGCAGCCCCUGUCAGAUUCUGGUGAAUCCGCGAGUUCUGCUGUAUAUCUC | 0.13
68 | UAACUGGGGGCCACAGCAGAAGUGUUCACGUCGCAGCCCCUGUCAGAUUCUGGUGAAUCUGCGAAUUCUGCUGUAUUUCUC | 0.35
